# Results taken from the BET-seq Pho4 binding data (Le et al. 2018).
# The other results are listed elsewhere or left out. These are noisy estimates, calculated here from bound and input reads.
# Biological target: T1, Pho4 (S. cerevisiae) (UniProt P07270)
# T1 sequence: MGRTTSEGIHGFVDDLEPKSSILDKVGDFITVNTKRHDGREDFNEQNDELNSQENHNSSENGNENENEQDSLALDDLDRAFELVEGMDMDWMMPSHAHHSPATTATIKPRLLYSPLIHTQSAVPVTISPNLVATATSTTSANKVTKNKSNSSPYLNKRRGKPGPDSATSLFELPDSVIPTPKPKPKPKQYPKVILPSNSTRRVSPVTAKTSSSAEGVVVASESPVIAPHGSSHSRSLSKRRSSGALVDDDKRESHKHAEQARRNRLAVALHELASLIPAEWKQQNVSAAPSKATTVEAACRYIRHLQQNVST
# Test: relative binding free energy (BET-seq); higher = weaker binding
# Settings: reference: library average
row,Sequence,relative binding free energy [kcal/mol]
1,GCGTTCACGTGTAGAG,0.34
2,TTGTACACGTGTGCTA,0.11
3,CTTTTCACGTGATAGG,0.25
4,GAGATCACGTGTTGGC,0.26
5,GTATGCACGTGGCAGT,-0.15
6,GTAGTCACGTGTTATA,0.17
7,AAGGACACGTGTGTTG,0.07
8,GTTATCACGTGGGTCT,0.04
9,AATAACACGTGAAGTG,0.32
10,AGGAACACGTGTGGTC,0.11
11,AGTCACACGTGGCAGT,0.1
12,AGTGTCACGTGGATGT,0.02
13,ATACGCACGTGTAGGT,-0.13
14,CTACGCACGTGGATGT,0.04
15,ACGAGCACGTGGTGGT,-0.11
16,GTGTCCACGTGGAGTA,0.05
17,AGAAGCACGTGGGCGT,-0.22
18,GGAGCCACGTGGGGAC,0.01
19,AGGTCCACGTGGGGGC,-0.23
20,GATAGCACGTGTCGTA,0.13
21,TGAGTCACGTGAATAA,0.45
22,CGGTGCACGTGTAGAG,0.06
23,GTTATCACGTGTGCAG,0.23
24,TTATACACGTGTTTGC,-0.01
25,AGGATCACGTGTGCGG,0.1
26,CGGTGCACGTGTGGCC,0.09

row,Sequence,relative binding free energy [kcal/mol]
1,GGTTGCACGTGCTTGG,-0.05
2,GAGATCACGTGGGGTT,0.06
3,AGAGGCACGTGGGTTC,-0.1
4,CGAGGCACGTGCGGAG,-0.14
5,GGCATCACGTGGCAGG,0.16
6,GTTGACACGTGGTGGC,0.09
7,AGGGCCACGTGGGAGG,-0.26
8,GAGCGCACGTGTAGGT,-0.13
9,TTTCGCACGTGTTTGA,-0.04
10,TAGGACACGTGTGTAT,0.15
11,AAAGTCACGTGTGTTA,-0.06
12,TTCATCACGTGGGTCG,0.02
13,CGTGTCACGTGAACGT,0.29
14,TTCGGCACGTGAAGGT,0.23
15,TATGACACGTGGGGGC,-0.24
16,TTACGCACGTGCGGGA,-0.04
17,TGGTACACGTGGGTTA,-0.02
18,TACGTCACGTGTATTT,-0.05
19,GTGGTCACGTGGCCGT,0.12
20,TAAATCACGTGTTATA,0.11
21,TTGTACACGTGAGTAT,0.18
22,GTGTGCACGTGTGGGT,0.03
23,TTAAACACGTGGCTGT,-0.15
24,GTAGTCACGTGCCGTG,0.04
25,TTCGTCACGTGTTGGA,0.02
26,CTGGGCACGTGGTACA,-0.11

row,Sequence,relative binding free energy [kcal/mol]
1,TTGGGCACGTGCAAAG,-0.19
2,TTAGTCACGTGGTAGG,0.08
3,TTAGTCACGTGATTGC,0.2
4,TTGGGCACGTGTTGAC,0.12
5,GTATGCACGTGTGGCG,0.12
6,TGTGACACGTGCTAGG,-0.1
7,AAGGACACGTGGGGCT,-0.11
8,TTTCACACGTGGGGCT,-0.06
9,TATAGCACGTGGCGTT,-0.14
10,CTAGTCACGTGGGTCG,-0.04
11,TGATTCACGTGTAGCT,0.2
12,TGAGACACGTGATATG,0
13,TGAGGCACGTGTGAAT,0.09
14,ATAGACACGTGTAGGC,0.11
15,GGTCGCACGTGTATGT,-0.07
16,ATGTTCACGTGGCTGA,0.29
17,AGAGTCACGTGGGCGT,-0.13
18,CTAGTCACGTGACGGT,0.38
19,TTCTGCACGTGGTGAA,-0.11
20,GTTTTCACGTGACTGT,0.33
21,TGAATCACGTGGATGG,0.22
22,GAGGGCACGTGATTTT,-0.01
23,AAAGGCACGTGTTATA,0
24,GATGCCACGTGTGTGG,0.1
25,TACCTCACGTGAGGGG,0.41
26,AGGTTCACGTGCTGGA,0.21

row,Sequence,relative binding free energy [kcal/mol]
1,GAGTGCACGTGAGAGT,0.34
2,CATAGCACGTGGCGGG,-0.17
3,GGAGGCACGTGGCGGA,-0.23
4,GTGGACACGTGGGTGG,0.06
5,TCAGGCACGTGGTGTA,-0.09
6,TAGGGCACGTGCTTTT,-0.21
7,TATAACACGTGAGGTG,0.25
8,TTTGTCACGTGGCTTG,0.03
9,TGTGGCACGTGTTGTT,0
10,ACTTGCACGTGGTAGG,-0.09
11,TTAAGCACGTGAGCTG,0.19
12,AAGAGCACGTGATGAG,0.04
13,TTGCGCACGTGGGGCT,-0.28
14,ATTTTCACGTGTGAAT,0.29
15,CGCTGCACGTGGGGCA,-0.12
16,GGGTTCACGTGGCATA,0.2
17,GAGGTCACGTGATCGT,0.14
18,AGTGGCACGTGGTGTT,-0.07
19,GGAAGCACGTGGCTGT,-0.2
20,CGATTCACGTGTGGGT,0.38
21,TGCATCACGTGTTGCT,0.22
22,TGGTACACGTGAATGT,0.23
23,ATATACACGTGGGATG,-0.26
24,AGGGTCACGTGAAGGC,0.12
25,GAAGCCACGTGGGATG,0.01
26,GGCAGCACGTGAAGTT,0.23

row,Sequence,relative binding free energy [kcal/mol]
1,TATGTCACGTGTTGGT,0.09
2,GGGGTCACGTGCGACT,0.08
3,GGATACACGTGGATGT,-0.08
4,TCAAGCACGTGTTGTG,-0.16
5,CTTTACACGTGGTATG,-0.13
6,AAAGCCACGTGGGTTG,-0.26
7,TGCAGCACGTGGCAGG,-0.13
8,AGGAGCACGTGGGCTG,-0.11
9,TGTGACACGTGTACTT,0.11
10,CCGGCCACGTGGTTGG,-0.07
11,TTAGTCACGTGAGTTA,0.41
12,ATATGCACGTGAGTAT,0.19
13,TTTATCACGTGTCAAT,0.1
14,GTAGGCACGTGGGTAA,-0.27
15,TAGGTCACGTGAGCTG,0.2
16,AAGGGCACGTGGCGTG,-0.16
17,TCCGGCACGTGATGGG,0.16
18,GTGGTCACGTGGTGGT,0.17
19,GTGGGCACGTGCTATT,0.05
20,GGGGACACGTGCAGGA,0.13
21,TTGATCACGTGGGGTG,0.05
22,TGGTACACGTGCGGAT,-0.05
23,TGAGACACGTGGGTTG,-0.13
24,GGGCGCACGTGAGTTG,0.29
25,TTTTTCACGTGCGATA,0.11
26,GTGGTCACGTGTTGAA,0.08

row,Sequence,relative binding free energy [kcal/mol]
1,TGAGTCACGTGTCAGG,0.11
2,GTTTGCACGTGCCTTT,-0.03
3,GTCGACACGTGTGTGG,0.04
4,TTCATCACGTGGTGCG,0
5,TGTTTCACGTGAGCTT,0.4
6,AAGCTCACGTGGTTGT,0.29
7,TGGCGCACGTGCTGTA,-0.2
8,TTTATCACGTGTGGCC,0.21
9,TGACGCACGTGGTTGG,-0.21
10,CGGGTCACGTGTGATC,0.47
11,TGGGCCACGTGTTTAA,0.03
12,TGGAACACGTGTGTTC,0.09
13,GGTGTCACGTGAACGT,0.22
14,CGTGCCACGTGGTTAG,-0.19
15,GGGGTCACGTGGGTCC,0.03
16,GATGACACGTGGTTAG,-0.03
17,GATGGCACGTGTTGTG,0
18,GCGCGCACGTGTGGGT,-0.16
19,TATGTCACGTGTAAAT,0.23
20,CGACTCACGTGTGGGA,0.29
21,ATATACACGTGGTTGA,-0.08
22,TAGGGCACGTGTATTG,-0.09
23,CGATGCACGTGGGGGG,-0.13
24,GTGTGCACGTGCGATT,-0.09
25,TCGGTCACGTGTGCTT,0.1
26,TGATGCACGTGAAATT,0.32

row,Sequence,relative binding free energy [kcal/mol]
1,TCGAGCACGTGTGGTT,0.11
2,TTCATCACGTGTGATT,0.2
3,TGGCGCACGTGGGGGG,-0.23
4,GCATTCACGTGGTAGA,0.31
5,TTGCACACGTGGAAGG,0.06
6,GGGAACACGTGGGTAG,-0.06
7,GTTGGCACGTGACGAT,0.07
8,ATTGACACGTGTGCTT,-0.03
9,ACTTGCACGTGTTGTA,-0.05
10,TCTGTCACGTGCATGT,0.04
11,ATTTGCACGTGTTAGA,0.09
12,CGGAGCACGTGAGGTA,0.19
13,TTTGTCACGTGTATAG,0.13
14,TAGATCACGTGTGGGG,0.22
15,TAGAACACGTGGGTAA,0.02
16,TGTCTCACGTGGGGCA,-0.01
17,TAGTTCACGTGTAGTC,0.12
18,TTTGACACGTGTTTGG,0.05
19,GGCGTCACGTGTTAAG,0.14
20,TATAGCACGTGTGAGC,0
21,TAATTCACGTGTGATG,0.28
22,AGGTGCACGTGGGCGT,-0.26
23,GAGGCCACGTGGGGGT,-0.13
24,TTTTCCACGTGATAGG,0.09
25,GTCGTCACGTGGGATG,0.14
26,GAGGGCACGTGGGTCC,-0.18

row,Sequence,relative binding free energy [kcal/mol]
1,AGGGACACGTGTGGCA,0.08
2,ATGGTCACGTGTAAGC,0.17
3,TAAAACACGTGAGGGT,0.22
4,GTGTACACGTGGCTTA,0.04
5,ATAGTCACGTGTATTG,-0.02
6,AAGTGCACGTGTTGGG,-0.04
7,TGTTTCACGTGTCCTT,0.14
8,GCCTGCACGTGGGGGC,-0.06
9,CGGGTCACGTGGTTTT,0.16
10,CTTTCCACGTGTTGTT,-0.03
11,AGAGTCACGTGGGAGA,0.1
12,CTTTTCACGTGGCTGG,0.12
13,ATTTTCACGTGTTTGC,0.3
14,GAGGGCACGTGCGTTG,-0.17
15,GGTGTCACGTGTATAT,0.09
16,GTTATCACGTGAGGAA,0.39
17,GGTGTCACGTGGAAGA,0.26
18,ATTGTCACGTGAGAGT,0.29
19,CGTGACACGTGGGGGC,-0.15
20,GGGATCACGTGAAAGT,0.37
21,GGTGGCACGTGGTGTA,-0.07
22,CTGTTCACGTGGTCAG,0.12
23,TGGGGCACGTGAGTGG,0.16
24,GTTTACACGTGTAATT,0.29
25,GTTGCCACGTGATGGA,0.12
26,TTGTGCACGTGTTCAG,-0.13

row,Sequence,relative binding free energy [kcal/mol]
1,GGGATCACGTGGCGCG,0.09
2,GTGTGCACGTGGCTCG,-0.08
3,GTATTCACGTGTGATG,0.34
4,GTGGACACGTGCAGGC,0.12
5,CCATGCACGTGTGGTG,-0.03
6,TAGGGCACGTGGATCA,-0.09
7,ATTGACACGTGGTCGA,-0.1
8,GTAGTCACGTGGCTGG,0.14
9,ATCATCACGTGTTGAT,0.27
10,CTTGGCACGTGTTTGG,-0.26
11,CGGATCACGTGGTGGA,0.16
12,AGTTTCACGTGCTTTA,0.18
13,ATTTGCACGTGAAAAT,0.19
14,TTCCACACGTGGGGTT,-0.06
15,GTTATCACGTGGTGAC,0.11
16,GTCTGCACGTGTCTGT,0.03
17,GGGTGCACGTGGGGCC,-0.16
18,TACTGCACGTGCTGGT,-0.12
19,TTAGACACGTGTTGTC,0.08
20,TGTCACACGTGTGATG,0.19
21,ATGTGCACGTGGGAAT,-0.09
22,AGGTGCACGTGATGTA,0.05
